Reference: PubChem BioAssay AID1030 (National Center for Advancing Translational Sciences (NCATS), 2008)
Among all 220,000 compounds or so, about 16,000 (7.3%) were called active. Inconclusive results, whose numbers are uncertain, are shown with a selection of clear calls. Calls come from the whole dose curve; as a rule, active = well fitted inhibition curve with a large enough effect (not every such curve was filed as active); inconclusive = small, poorly fitted or top-dose-only effect, or another doubt; inactive = no such curve, though single readings can be large or run the other way. Potencies of inconclusive entries are left out as doubtful fits.

Target: Aldehyde dehydrogenase 1A1 (Homo sapiens) (UniProt P00352)
Test: qHTS Assay for Inhibitors of Aldehyde Dehydrogenase 1 (ALDH1A1);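 for activity, negative = inhibition: plate controls were no enzyme wells and a reference inhibitor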
Conditions: Purified ALDH1A1, NADH fluorescence, propionaldehyde substrate; series mostly up to 75.3 µM
Potency is the fitted concentration of half-maximal effect; tags give direction and shape of the fitted curve.

Sequence of UniProt P00352 (P00352 whole entry, looked up): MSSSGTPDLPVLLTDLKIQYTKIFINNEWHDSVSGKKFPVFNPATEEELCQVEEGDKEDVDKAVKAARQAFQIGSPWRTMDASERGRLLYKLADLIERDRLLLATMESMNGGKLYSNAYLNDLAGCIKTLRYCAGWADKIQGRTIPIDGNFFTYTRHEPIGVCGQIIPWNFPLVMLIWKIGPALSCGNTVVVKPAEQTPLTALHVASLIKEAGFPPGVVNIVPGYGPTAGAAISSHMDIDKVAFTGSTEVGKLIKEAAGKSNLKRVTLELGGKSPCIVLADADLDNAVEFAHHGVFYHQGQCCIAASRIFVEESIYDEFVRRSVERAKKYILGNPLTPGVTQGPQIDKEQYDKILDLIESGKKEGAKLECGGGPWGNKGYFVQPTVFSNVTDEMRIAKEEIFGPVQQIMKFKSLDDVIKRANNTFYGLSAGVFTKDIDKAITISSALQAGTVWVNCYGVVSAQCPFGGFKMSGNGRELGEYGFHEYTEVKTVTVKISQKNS

SMILES | Potency | activity, negative = inhibition
Cc1cccc(-n2c(-c3csc4ccccc34)n[nH]c2=S)c1 | inconclusive [inhibitor, single point] | 
CC/C(=N\n1nnnc1Nc1ccccc1)c1ccccc1 | inactive | 
CC1(C)CC(=O)c2c(noc2-c2ccccc2)C1 | inconclusive [inhibitor, partial curve] | 
O=C(O)c1nc(N2CCCC2)ncc1Cl | inconclusive [inhibitor, single point] | 
O=C(Nc1ccc2c(c1)OCCO2)c1cccc(S(=O)(=O)N2CCCCC2)c1 | inconclusive [inhibitor, single point] | 
C=CCn1c(SCC(=O)N(C)C2CCS(=O)(=O)C2)nc2ccccc2c1=O (configuration not stated) | inactive | 
O=C(c1ccc(Cl)cc1)c1ccc(CN2C(=O)c3ccccc3C2=O)o1 | inconclusive [inhibitor, single point] | 
Cc1ccc2nc(Nc3ncc4c(n3)CC(C)(C)CC4=O)nc(C)c2c1 | inconclusive [inhibitor, single point] | 
COc1ccccc1NC(=O)CSc1nc2ccccc2c(=O)n1CCNC(C)=O | inactive | 
Cc1cc(C)c(NS(=O)(=O)c2ccc(NC(=O)/C=C/C(=O)O)cc2)c(C)c1 | inactive | 
C=C(C)C(O)/C=C/C=C/c1ccccc1 (configuration not stated) |  | inactive: -13.4% [at 13.5 µM]
CCOc1cc(C2C(C#N)=C(N)SC(N)=C2C#N)ccc1OCCN1CCOCC1 | active: 7.94 µM | 
COc1ccc(-c2[nH]ncc2CN(C)Cc2cc(C)[nH]n2)c(F)c1 | inconclusive [inhibitor, single point] | 
Cc1c(Br)c([N+](=O)[O-])nn1CC(=O)N1CCCc2ccccc21 | inconclusive [inhibitor, single point] | 
Cn1cccc1C(=O)OCc1cc(Cl)cc2c1OCOC2 | inconclusive [inhibitor, single point] | 
Cc1nn(-c2ccccc2)c(N)c1Sc1ccccc1[N+](=O)[O-] | inconclusive [inhibitor, single point] | 
Cc1nn2c(C(F)(F)F)c3c(nc2c1-c1ccccc1)CCC3 | inactive | 
COCC(=O)N1CCC2(CC1)CCN(c1cccc(-c3ccccc3)c1)CC2 | inactive | 
O=C1C2C3C=CC(C4CC34)C2C(=O)N1/N=C/c1ccc(-c2ccc([N+](=O)[O-])cc2)o1 (configuration not stated) | inactive | 
O=C(CSc1nnc(Cc2cccs2)n1Cc1ccco1)Nc1ccc(Br)cc1 | active: 20 µM | 
Cn1c(=O)c(-c2ccccc2)nc2ccccc21 | inconclusive [inhibitor, single point] | 
Cc1ccc(C(=O)CSc2n[nH]c(C)n2)cc1 | inconclusive [inhibitor, single point] | 
CCOC(=O)N1CCN(Cc2c(O)ccc3ccccc23)CC1 | inconclusive [inhibitor, partial curve] | 
S=c1nc(Cc2ccc(Cl)cc2)[nH]c2ccccc12 | inactive | 

SMILES | Potency | activity, negative = inhibition
COc1ccccc1-c1nc(N)n[nH]1 | inconclusive [inhibitor, partial curve] | 
COC(=O)c1cccc(N(C(=O)c2cnccn2)C(C(=O)NC2CCCCC2)c2cn(C)nc2C)c1 (configuration not stated) | inactive | 
C=CCN1C(=O)c2cccc3c(Br)ccc(c23)C1=O | inconclusive [inhibitor, single point] | 
CCOC(=O)N1CCN(C(=O)Nc2sc3nc4n(c(=O)c3c2C)CCC(C)CC4)CC1 (configuration not stated) | active: 12.6 µM | 
C/C(=N\NC(=O)c1ccncc1)C12CC3CC(CC(C3)C1)C2 | inconclusive [inhibitor, single point] | 
CC1CCCC(C)N1C(=O)Cc1ccccc1 (configuration not stated) | inconclusive [inhibitor, single point] | 
CC(C)CNS(=O)(=O)c1ccc(CCC(=O)N2CCN(c3ccccc3)CC2)cc1 | inconclusive [inhibitor, partial curve] | 
CN(CC(=O)NC1CCCCCC1)S(=O)(=O)c1ccc2c(c1)n(C)c(=O)c(=O)n2C | inactive | 
Cc1ccc2cc(CCNC(=O)c3cccs3)c(=O)[nH]c2c1 | inconclusive [inhibitor, single point] | 
COc1ccc(/C=C/C(=O)c2ccc(NC3=NCCCS3)cc2)cc1OC | inactive | 
CCN(CC)Cc1c(O)ccc2c(C)c(CC(=O)OC)c(=O)oc12 | inconclusive [inhibitor, partial curve] | 
COc1ccccc1NS(=O)(=O)c1cc(NC(=O)CC(C)(C)C)ccc1N1CCOCC1 | inactive | 
CCN(Cc1ccccc1)C(=O)c1cc2c(=O)oc3ccc(C)cc3c2s1 | inconclusive [inhibitor, partial curve] | 
CCOC(=O)c1c(-c2ccc(OC)cc2)csc1NC(=O)CNCc1ccco1 | inconclusive [inhibitor, partial curve] | 
CC(C)OC(=O)c1cn(-c2ccccc2)nc1-c1ccc2c(c1)OCCO2 | inconclusive [inhibitor, partial curve] | 
N/C(=N\OC(=O)Cc1ccccc1)c1ccccn1 | inactive | 
CCOC(=O)/C(C)=N/NC(C)=O | inactive | 
S=C(NCc1ccco1)Nc1cc(-c2ccccc2)[nH]n1 | active: 1.12 µM | 
COc1ccc2[nH]c(=O)c(CN(Cc3ccco3)Cc3nnnn3Cc3ccccc3)cc2c1 | inconclusive [inhibitor, partial curve] | 
COc1ccc(OC)c(C2=Nn3c(nnc3-c3cc(OC)c(OC)c(OC)c3)SC2)c1 | inconclusive [inhibitor, single point] | 
CCn1cc(C(=O)N[C@H](C)c2ccccc2)c(=O)c2cc(F)c(N3CCN(C)CC3)cc21 | inconclusive [inhibitor, partial curve] | 
CCN(CC)c1ccc(/C=N/NS(=O)(=O)c2ccc(CNC(C)=O)cc2)cc1 | inconclusive [inhibitor, single point] | 
Cc1ccc(-c2nc(CN(C)Cc3cccc4cnccc34)c(C)o2)s1 | inconclusive [inhibitor, partial curve] | 
